Data reported in article PMC4336329 (PLoS ONE, 2015).
Screen size: about 310,000 compounds; about 2,200 (0.71%) showed an effect of 50% or more. Effects have a minus sign here. The list shows a part of the results.

These compounds were tested against human ether-à-go-go-related gene (hERG) potassium channel (human, UniProt Q12809) (assay: primary screen, population patch clamp on CHO cells stably expressing hERG).
human ether-à-go-go-related gene (hERG) potassium channel, sequence (Q12809 whole entry, looked up): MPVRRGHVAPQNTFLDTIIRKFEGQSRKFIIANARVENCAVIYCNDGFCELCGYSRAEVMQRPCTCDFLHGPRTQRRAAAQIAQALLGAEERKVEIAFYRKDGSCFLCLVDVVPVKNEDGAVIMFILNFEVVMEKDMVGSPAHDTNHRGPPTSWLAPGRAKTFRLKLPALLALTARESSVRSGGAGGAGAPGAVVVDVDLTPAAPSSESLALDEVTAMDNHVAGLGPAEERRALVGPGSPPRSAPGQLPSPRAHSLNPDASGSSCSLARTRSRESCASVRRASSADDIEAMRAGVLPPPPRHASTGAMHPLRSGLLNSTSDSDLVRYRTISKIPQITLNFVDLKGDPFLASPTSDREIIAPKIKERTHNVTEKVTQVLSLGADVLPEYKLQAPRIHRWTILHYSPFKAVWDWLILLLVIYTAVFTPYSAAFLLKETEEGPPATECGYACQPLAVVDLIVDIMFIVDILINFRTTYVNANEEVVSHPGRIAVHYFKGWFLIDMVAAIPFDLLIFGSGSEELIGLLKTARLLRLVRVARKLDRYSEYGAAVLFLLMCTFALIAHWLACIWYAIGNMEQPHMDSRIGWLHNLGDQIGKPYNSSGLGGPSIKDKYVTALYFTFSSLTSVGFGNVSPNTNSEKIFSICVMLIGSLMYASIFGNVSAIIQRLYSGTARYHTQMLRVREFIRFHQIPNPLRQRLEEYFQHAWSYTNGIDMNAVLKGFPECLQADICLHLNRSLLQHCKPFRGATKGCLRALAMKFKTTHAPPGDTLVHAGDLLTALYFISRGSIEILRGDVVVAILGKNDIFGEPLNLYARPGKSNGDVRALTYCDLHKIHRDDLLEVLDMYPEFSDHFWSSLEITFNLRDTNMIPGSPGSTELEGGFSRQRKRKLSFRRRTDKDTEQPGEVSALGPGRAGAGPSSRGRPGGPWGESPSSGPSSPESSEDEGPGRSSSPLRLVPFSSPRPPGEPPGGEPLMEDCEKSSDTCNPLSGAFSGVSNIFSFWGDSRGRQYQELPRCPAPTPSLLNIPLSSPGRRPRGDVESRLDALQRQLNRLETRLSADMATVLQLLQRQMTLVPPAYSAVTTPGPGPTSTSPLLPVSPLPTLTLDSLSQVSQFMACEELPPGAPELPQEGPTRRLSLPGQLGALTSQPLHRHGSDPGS

Structure (SMILES) | hERG current change (%, negative = inhibition) at 1uM
COc1ccc(NC(=S)NCCCN2CCCC2)cc1 | 10.8%
O=c1cc(N2CCc3ccccc32)[nH]c(=O)n1Cc1ccc(F)cc1 | 7.35%
CSc1cc(-c2ccccc2)n(Cc2ccc(Cl)cc2Cl)c(=O)c1C#N | 6.42%
O=C(O)Cn1nc(-c2ccccc2)cc1-c1ccccc1 | 13.8%
c1ccc(CN2CCN(Cc3nnc(-c4ccccc4)o3)CC2)cc1 | 0.426%
CCCCn1c(N)c(N(CC)C(=O)c2cccc(F)c2)c(=O)[nH]c1=O | 10.2%
CCS(=O)(=O)N1Cc2ccccc2CC1C(=O)Nc1nc(C)cs1 (stereo not drawn) | 14.1%
Cc1noc(C(=O)N(C)c2ccccc2)c1Cl | 32.5%
CCOC(=O)c1c(C)oc2ccc(O)cc12 | 11.5%
Cc1ccc(N(C(=O)CNC(=O)c2ccco2)C(C(=O)NC2CCCC2)c2ccncc2)c(C)c1 (stereo not drawn) | 18.8%
COc1ccc(S(=O)(=O)NCC2CCCO2)cc1NC(=O)c1ccccc1F (stereo not drawn) | 16.5%
Cc1nc2c(=O)n(C)c(=O)nc-2n(C)n1 | 4.43%
CN(C)c1ccc(/C=C/C(=O)c2ccc3c(c2)OCCO3)cc1[N+](=O)[O-] | 5.57%
COc1ccccc1NC(=O)CCN1CCN(C)CC1 | 13%
Nc1ccc(-n2nnnc2-c2ccco2)cc1 | 11.1%
CC(C)[C@H](NC(=O)N1CC(=O)Nc2ccccc21)C(=O)N[C@H](Cc1c[nH]c2ccccc12)C(=O)O | 3.03%
COc1ccc(-c2[nH]c(-c3cccc(OC)c3)nc2SCC(=O)NCc2ccco2)cc1 | 13.8%
Cc1ccc(C(C(=O)NC2CCCC2)N(Cc2ccco2)C(=O)CCC(=O)Nc2ccccn2)cc1 (stereo not drawn) | -0.304%
O=C(Nc1ccc2c(c1)CCC2)c1cc(F)cc(F)c1 | 11.9%
CCC(=O)N1N=C(c2ccccc2)CC1c1ccc([N+](=O)[O-])cc1 (stereo not drawn) | -2.04%
COc1ccc(OCC(=O)Nc2ccc(S(=O)(=O)Nc3cc(C)on3)cc2)cc1 | -9.83%
CC(C)(C)NC(=O)C1CCC(CNc2c(N3CCCCC3)c(=O)c2=O)CC1 (stereo not drawn) | 9.61%
Cc1ccc(NC(=S)N2CCOCC2)c(C)c1 | 16.4%

Structure (SMILES) | hERG current change (%, negative = inhibition) at 1uM
COc1ccccc1NC(=O)c1cc(C(=O)Nc2ccccc2OC)cc([N+](=O)[O-])c1 | 10.4%
Cc1cccc(N(CC(=O)Nc2cccnc2)S(C)(=O)=O)c1 | 7.13%
CC1CCN(C(=O)c2cc(S(=O)(=O)N3CCOCC3)ccc2N2CCCC2)CC1 | 12.7%
COc1ccc(OCCCC(=O)N(CCC2=CCCCC2)c2c(N)n(Cc3ccccc3)c(=O)[nH]c2=O)cc1 | 13.9%
O=C(COc1ccc(Cl)cc1)N1CCN(C(=O)c2cccc(F)c2)CC1 | -8.03%
COc1cc(C(=O)Nc2ccc3c(c2)OCCO3)ccc1OC(F)F | -3.81%
O=C(NCc1ccc2c(c1)OCO2)c1nc(S(=O)(=O)Cc2ccccc2F)ncc1Cl | 0.887%
CCN(CC)S(=O)(=O)c1ccc(OC(C)C)c(NC(=O)C2=COCCO2)c1 | -0.431%
CC(=O)Nc1ccc2nc(-c3cccn3C)[nH]c2c1 | 13.6%
O=C(c1ccco1)N1CCN(c2ncnc3c(-c4ccc(Cl)cc4)nsc23)CC1 | 17.1%
CC(C)c1ccc(NC(=O)COc2ccccc2)cc1 | 13.4%
CC(C(=O)N1CCc2ccccc21)N1CCN(c2ccccn2)CC1 (stereo not drawn) | 7.44%
O=C(O)c1cccnc1C(=O)O | 14.2%
CC(C)(C)c1ccc(C(=O)Nc2cccc3c(=O)[nH][nH]c(=O)c23)cc1 | 4%
CCn1c(C(O)c2ccc3c(c2)OCO3)nc2ccccc21 (stereo not drawn) | 7.78%
c1cncc(-c2csc(NCc3ccco3)n2)c1 | 8.93%
Cc1cccc(Cn2cnc3c(sc4nc(C)cc(C)c43)c2=O)c1 | 10.5%
Cc1ccsc1/C=N/NS(=O)(=O)c1ccc([N+](=O)[O-])cc1 | 3.03%
O=C(Nc1cccc(-c2nc3ccccc3s2)c1)C1=COCCO1 | 5.84%
O=C(COc1cc([N+](=O)[O-])cc2cccnc12)NCCC1=CCCCC1 | -34.6%
Cc1ccn2c(NC(=O)c3ccco3)c(-c3ccccc3)nc2c1 | 6.02%
CCOC(=O)CSC1=NN2CCS(=O)(=O)N=C2S1 | 18.8%
C=CCSc1nnc(CNC(=O)c2ccccc2C)n1C(C)C | 11.8%

Structure (SMILES) | hERG current change (%, negative = inhibition) at 1uM
CC1N(C)c2cc(NC(=O)c3cccs3)c(P(=O)(Nc3ccc([N+](=O)[O-])cc3)N3CCOCC3)cc2C1(C)C (stereo not drawn) | 13.7%
O=C(CCN1C(=O)c2ccccc2C1=O)NCCC1=CCCCC1 | -1.26%
CC(CC(=O)O)C(=O)c1ccc(Cl)c([N+](=O)[O-])c1 (stereo not drawn) | 16.2%
Cc1ccc2nc(/C(C#N)=C/c3ccc(-c4ccccc4C(=O)O)o3)[nH]c2c1 | 13.5%
COc1ccc(NC(=O)c2sc(N3CCOCC3)nc2-c2ccccc2)c(OC)c1 | -1.09%
C=CCN(C(=O)Nc1ccc2oc(C)nc2c1)c1ccccc1 | -0.898%
CC(C)(C)OC(=O)N/N=C/c1cc(N=Nc2ccccc2)ccc1O | 14.3%
COC(=O)CCC(=O)Nc1ccc(S(=O)(=O)Nc2cc(OC)nc(OC)n2)cc1 | 0.393%
O=C(COC(=O)c1ccc(NS(=O)(=O)c2cccs2)cc1O)Nc1ccc(F)cc1 | 14.3%
COc1ccc(NC(=S)NNC(=O)Cn2nc(C(F)F)cc2C(F)F)cc1 | 10.2%
O=C(NC1=NCCS1)c1ccc(Cl)c(S(=O)(=O)N2CCCCC2)c1 | 7.3%
Cc1ccc(S(=O)(=O)N2CCCN(C(=O)CNC(=O)c3cccc(C)c3)CC2)cc1 | -23.6%
CC(=O)N=C1SC2CS(=O)(=O)CC2N1Cc1ccc(C)cc1 (stereo not drawn) | 6.15%
Cc1c(CC(=O)O)c(=O)oc2cc3occ(-c4ccccc4)c3cc12 | -7.78%
O=C(/C=C/c1ccco1)Nc1ccccn1 | 12.7%
CC(CCc1ccccc1)NCCC#N.Cl (stereo not drawn) | 8.28%
COCCn1c(SCC(=O)Nc2sccc2C(N)=O)nnc1-c1ccncc1 | 1.99%
Cc1ccc(S(=O)(=O)CCc2nnc(NC(=O)CCl)s2)cc1C | 0.514%
Oc1ccc(/C=N/N2CCN(C3c4ccccc4-c4ccccc43)CC2)cc1O | 15.2%
Cc1cccc(Nc2ccccc2C(=O)OCC(=O)N2CCOCC2)c1C | 8.09%
CCc1sc(C(=O)Nc2cc(Cl)ccc2N2CCCCC2)cc1C | -1.76%
CN(Cc1cc2cc(F)ccc2[nH]1)Cc1nc(-c2cnccn2)no1 | 0.822%
CC(C)CC(C)c1cc(N)nc2nc3ccccc3n12 (stereo not drawn) | -16.1%

Structure (SMILES) | hERG current change (%, negative = inhibition) at 1uM
COc1ccc(C(=O)Nc2ccc3c(c2)C(=O)NC3=O)cc1 | 7.09%
O=C(CC1(O)C(=O)Nc2ccccc21)c1ccc(-n2cnnn2)cc1 (stereo not drawn) | 15.5%
CC(C)N1CCN(CCCc2ccccc2)CC1CCO (stereo not drawn) | 11.6%
CC(C)=C(NC(=O)c1ccccc1)C(=O)NCc1ccccc1 | 6.4%
O=C1CCCCC1Oc1ccc2ccc(=O)oc2c1 (stereo not drawn) | 13.6%
Cc1nnc(NC(=O)CSc2cn(Cc3ccccc3)c3ccccc23)s1 | 3.59%
O=c1[nH]c(=S)n(C2CC2)c(O)c1/C=N/N1CCOCC1 | 0.902%
Cc1cc(OCCOCCNC(C)C)cc(C)c1Cl.O=C(O)C(=O)O | -9.73%
COc1ccc2c(c1OC)C(=O)OC2CC(=O)O (stereo not drawn) | 15.2%
O=C1C2CCCN2C(c2cccs2)N1c1ccc(Cl)cc1 (stereo not drawn) | 7.28%
Cc1nc2ncnn2c(C)c1Cc1ccc(Cl)cc1 | 9.93%
COc1ccc(OC)c2[nH]c(=O)c(CCNC(=O)c3ccc(S(=O)(=O)N4CCCC4)cc3)cc12 | -11.4%
Cc1nnc(N/N=C/c2cc(C)n(-c3ccc(F)cc3)c2C)n1N.Cl | 6.13%
COc1ccccc1CNS(=O)(=O)c1cc(CN2C(=O)c3cccnc3C2=O)ccc1OC | 11.8%
Cc1c(C(=O)O)nnn1-c1nonc1N | 15.8%
O=C(CN1CCOCC1)Nc1ncc(Cc2cccc(Cl)c2Cl)s1 | -11.1%
Cc1nc2ccccc2n1S(=O)(=O)c1ccc(S(=O)(=O)N2CCCCCC2)cc1 | 14.6%
COc1cc2[nH]c3c(=O)n4c(nc3c2cc1OC)SCCC4 | 6.41%
O=C(NC1CC1)C1=C[C@@H](c2c[nH]c3ccccc23)C[C@@H](OCc2ccc(CO)cc2)O1 | -9.13%
CN(C)c1ccc(/C=C(\C#N)C(=O)NCc2ccco2)cc1 | 2.53%
Cc1ccc(-c2nn(-c3ccccc3)cc2C(=O)N2CCN(c3ccccn3)CC2)cc1 | 6.15%
